Source: ChEMBL document CHEMBL4888484, “Replenishing the malaria drug discovery pipeline: Screening and hit evaluation of the MMV Hit Generation Library 1 (HGL1) against asexual blood stage Plasmodium falciparum ,using a nano luciferase reporter read-out” (2022)
Screen size: about 150,000 compounds; about 540 (0.36%) showed an effect of 50% or more. This is one part of the list.

The compounds below were run on Plasmodium falciparum (assay: Primary screen in NF54 nanoGlo assay, in single point, at 2uM, 72h; a lower Z score goes with more inhibition). Settings: timepoint 72 hour.
Format: functional, Erythrocyte

Structure (SMILES)	% Inhibition	Z score
COc1cccc(O)c1-c1nc2c(C)c(C)c(C)c(C)c2[nH]1	-1%	0.27
O=C(N[C@H]1CCc2nnc(C3CC3)n2CC1)c1cnco1	-7%	1.07
NC(=O)c1ccc(NC(=O)c2ncccn2)cc1	-8%	1.46
CCC1CCC(C)N1C(=O)NCc1nnc2n1CCC2 (stereo not drawn)	38%	-3.79
O=c1c(NCCc2ccc(Cl)cc2)nccn1Cc1ccc(F)cc1	9%	-1.02
COCCN(CCS(=O)(=O)c1ccccc1)CC(=O)N(C)C	-2%	0.2
Cc1ncc([C@H](C)Nc2cccc(OCCF)c2)s1	1%	-0.07
CC(C)Cc1nc(-c2ccccc2)oc1CC(=O)NCc1cccc(Cl)c1	2%	-0.41
COCCNC(=O)[C@H]1CCCN(C2CCN(c3ccc4ccccc4n3)CC2)C1	-17%	1.61
CCn1c(=O)c(C(=O)NCc2ccc(C)o2)nc2cccnc21	-3%	0.31
CCN(Cc1nc(-c2cccs2)no1)C(=O)CCc1ccccc1Cl	31%	-3.47
CCN(CC(C)C)C(=O)NCc1cn(C(C)(C)C)c(=O)[nH]c1=O	-13%	2.6
Cc1noc(CN(C)Cc2ccc(N3CCOCC3)cc2)n1	-14%	1.88
COc1cccc(NC(=O)c2c([O-])n(-c3cccc(OC)c3)n[n+]2Cc2ccccc2)c1	-32%	3.76
O=C(NCC1CCCCC1)c1ccc(S(=O)(=O)Nc2ccncc2)cc1	-2%	0.23
FC(F)(F)c1ccc(-c2cc(C(F)(F)Cl)n3nc(N4CCN(c5ccccc5)CC4)nc3n2)cc1	3%	-0.38
CCc1nccn1CCC(=O)N(C)Cc1cc(-c2ccccc2)n[nH]1	-11%	1.55
O=S(=O)(N[C@H]1CC[C@H](Oc2ccccn2)CC1)C1CC1	-11%	1.31
COc1ccc(NC(=O)c2nc(Nc3ccccc3)c3ccccc3n2)cc1	22%	-4.09
O=C(NCCC1(O)CCN(c2ccccc2)CC1)c1[nH]ccc1C1CC1	-8%	1.22
OCC[C@H]1CN(c2noc(-c3ccccc3)n2)CCN1CCc1ccccc1	-3%	0.25

Structure (SMILES)	% Inhibition	Z score
Cn1ccnc1C(Nc1nc(C2CCOCC2)ns1)c1nccn1C	-8%	1.48
O=C(c1ccncc1)N1N=C(C2CC2)C[C@]1(O)C(F)(F)F	-4%	0.53
Cc1ccc2nc(-c3ccc(NC(=O)c4cccs4)cc3)oc2c1	-12%	1.63
CCCn1nnnc1Cn1c(C)nnc1-c1cccc(C#N)c1	-12%	1.09
O=C(CC[C@@H]1N=C(O)c2ccccc2NC1=O)NCCn1cnc2cc(Cl)ccc21	-12%	1.55
CC1(C)CN(Cc2cccc(F)c2F)CC[S@+]1[O-]	2%	-0.18
O=C(NCc1ccccc1)c1coc(CN(Cc2ccccc2)Cc2ccc(Cl)cc2Cl)n1	1%	-0.2
C[C@H]1CCCN(C(=O)CCc2ccc3c(c2)OCO3)C1	-13%	1.62
CC1(C)C[C@@H](O)CCN(CCn2cnc3ccccc3c2=O)C1	-5%	0.92
Cc1c(C(=O)NCCCN(C)C)nnn1-c1cccc2cccnc12	4%	-0.7
CC(=O)N1CCN(Cc2ncnn2CCF)CC12CCCCC2	-6%	0.77
Cc1c(C(=O)O[C@@H](C)c2nc3ccccc3o2)cnn1C	-5%	0.59
Cc1cc(C)c(CNC(=O)[C@H](O)c2ccccc2)cn1	-14%	1.37
CC(C)n1cccc1C(=O)NCCc1csc(N)n1	3%	-0.53
Cc1noc(CNC(=O)NCCC[C@H]2CCCCO2)n1	-9%	1.01
CCO[C@H]1CN(Cc2cccc3nonc23)C[C@@H]1O	7%	-1.26
Cc1cccc(O[C@H]2COCCN(Cc3cnn(C)c3)C2)n1	-4%	0.52
Cc1nc[nH]c1-c1nccn1CCc1ccc(S(N)(=O)=O)cc1	-14%	2.03
COc1ccc([C@@H]2C=C(c3ccc(Cl)cc3)N=C3NC(N4C(=O)c5ccccc5C4=O)=NN32)cc1	-6%	0.61
O=C(c1nnn2c1CO[C@H](c1ccccc1)C2)N1CCN(c2ncccn2)CC1	-5%	0.6
CCCCN(CC(N)=O)Cc1cc(C)ccc1OC	1%	-0.15

Structure (SMILES)	% Inhibition	Z score
C=CCn1cc(-c2cc(-c3cc(F)cc(F)c3)nc(N)c2C#N)cn1	-12%	1.31
CCCc1cc(C(=O)NCc2ccc3c(c2)OCO3)cs1	-9%	1.23
CC(=O)Nc1ccc(Nc2cc(Oc3ccc(Br)cc3)c(S(=O)(=O)C(F)(F)F)cc2S(=O)(=O)C(F)(F)F)cc1	-5%	0.48
CCN1C(=O)C(=O)N(Cc2coc(-c3ccc(C)cc3C)n2)C1=O	0%	0.07
C#CCCC1(CCC(=O)N2CCC[C@H]3O[C@@H](c4ccccc4)C[C@H]32)N=N1	-1%	0.15
COc1ccc(C(=O)N2CC(n3ccnc3)C2)cc1F	-9%	1.15
CCOCCN1CCN(c2nn3cc(C)nc3s2)C[C@@H]1CC	-13%	1.87
COc1ccnc(N2CCN(S(C)(=O)=O)c3ccccc3C2)n1	1%	-0.22
CNC(=O)C1CCCN1C(=O)NC(c1ccccn1)C1CCCC1 (stereo not drawn)	0%	-0.01
Cc1ccc(S(=O)(=O)N2CCN([C@@H](C)c3nccs3)CC2)o1	-5%	0.46
Cc1ccc2nc(CN3CCN(C(=O)Nc4ccc(Br)c(C)c4)CC3)oc2c1	-23%	2.02
Cc1ccc(CN2C[C@@H](CO)[C@H](NC(=O)c3ccccc3)C2)nc1	-17%	2.33
Cc1c(-c2noc(-c3cccnc3)n2)nnn1Cc1cccc(F)c1	-3%	0.6
Cc1nc(-c2ccc(C)c(NC(=O)CN3CC(C)OCC3C)c2)n[nH]1 (stereo not drawn)	-1%	0.17
CCc1ccc(CN2CCC[C@@](CO)(CC3CC3)C2)nc1	-8%	1.59
C[C@H](NC(=O)Cc1cccc2ccccc12)c1ccco1	-44%	5.15
CC(=O)N1CCC(CNc2nc(N)nc(C)c2Cl)CC1	-1%	0.14
O=C1CCC(C(=O)N2CC[C@@]3(CCCN(CC4CCC4)C3=O)C2)=NN1	-12%	1.32
COc1ccc(CN2CCNC(=O)[C@@H]2CC(=O)N2CCc3ccccc3C2)cc1C	-1%	0.27
CCOc1ccc(NC2=N[C@H](C(=O)NCc3ccccc3)CC(=O)N2)cc1	-8%	1.02
Cc1c(C(=O)N2CCN(S(=O)(=O)c3ccccc3)CC2)oc2c1ccc1ccccc12	-5%	0.75

Structure (SMILES)	% Inhibition	Z score
CC(C)(C)c1cc(CN2C[C@H](C(=O)O)[C@@H](c3ccc4c(c3)OCO4)C2)n[nH]1	-2%	0.3
c1ccc(Nc2c3ccccc3c(Nc3ccccc3)c3ccccc23)cc1	-1%	0.17
CC[C@@H](c1ccccc1)S(=O)(=O)Cc1nc(C2CC2)n[nH]1	-7%	0.67
O=S1(=O)CCC2(CC1)C[C@@H]2c1nc(C2(c3ccccc3)CCOCC2)no1	2%	-0.39
Cc1cc(F)cc(C(=O)Nc2cc(-c3cccnc3)nn2CCO)c1	14%	-1.45
CS(=O)(=O)c1ccc(OC[C@H]2C[C@@H](NC(=O)c3ccccc3)[C@H](O)[C@@H]2O)cc1	14%	-2.19
CCn1ccc(-c2nnc(Nc3ccn(Cc4c(F)cccc4Cl)n3)s2)n1	9%	-1.31
Cc1cc(C)cc(-n2ncc3c(N4CCCCCC4)ncnc32)c1	-17%	2.03
CCc1nc(-c2cc3ccccc3o2)n(CC(C)(C)O)n1	-11%	2.26
Cc1cccc(CN(C)C(=O)c2onc3c2CCCC3)n1	-1%	0.17
Cc1cccnc1NC(=O)N(C)CCCOCc1ccccc1	2%	-0.19
O=C(NCc1cn(-c2cccnc2)nn1)c1cccc(Oc2ccc(F)cc2)c1	2%	-0.24
Cc1nnc(N[C@H]2c3ccccc3C[C@H]2O)c(C#N)c1C	-3%	0.38
CC(C)N1CC(NC(=O)NCC(O)c2ccccc2F)CC1=O (stereo not drawn)	-18%	1.52
Cc1ccc(C(=O)NCc2ccccn2)s1	-3%	0.38
COc1c(C)cc(CN[C@@H](C)c2nnc3n2CCCCC3)cc1C	2%	-0.44
CN(C[C@H]1CCCCO1)C(=O)Cn1ccc2ccccc2c1=O	-11%	1.07
CN(C[C@H]1CCCCN1C)C(=O)c1csc(N)n1	-8%	1.05
COc1ccc(-c2noc(-c3csc(CCN)n3)n2)cc1OC	-11%	1.93
COc1cccc(-c2nnc(NCc3cccc(C#N)c3)o2)c1OC	-16%	2.29
CCOC(=O)C1CCCN(C2CCN(C(=O)CCC3(Cc4ccc(C)cc4)CCC(=O)N3)CC2)C1 (stereo not drawn)	-5%	0.68
